Measurements from US20260193317A1, “COMBINATION THERAPY WITH ACTRIIB RECEPTOR VARIANTS AND GLP-1 AGONISTS” (35PHARMA Inc., priority 2023, published 2026).

T1: recombinant human activin A (human, UniProt P08476 311-426)
T1 sequence (looked up): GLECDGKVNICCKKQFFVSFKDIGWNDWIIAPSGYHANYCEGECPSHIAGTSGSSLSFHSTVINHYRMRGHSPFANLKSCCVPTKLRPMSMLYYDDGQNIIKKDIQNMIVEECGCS

T2: activin B (UniProt P09529 293-407)
T2 sequence (looked up): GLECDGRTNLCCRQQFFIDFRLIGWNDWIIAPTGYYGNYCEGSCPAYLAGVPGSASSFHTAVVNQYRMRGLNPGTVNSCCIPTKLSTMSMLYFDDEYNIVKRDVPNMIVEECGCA

T3: BMP-9 (UniProt Q9UK05 320-429)
T3 sequence (looked up): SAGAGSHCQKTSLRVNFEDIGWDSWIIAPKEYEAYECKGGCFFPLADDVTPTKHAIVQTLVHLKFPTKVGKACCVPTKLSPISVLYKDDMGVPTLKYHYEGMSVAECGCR

T4: BMP-10 (UniProt O95393 317-424)
T4 sequence (looked up): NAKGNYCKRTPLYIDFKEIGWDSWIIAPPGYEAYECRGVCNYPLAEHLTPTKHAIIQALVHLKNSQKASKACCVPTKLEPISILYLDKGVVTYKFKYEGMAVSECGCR

T5: activin A (Homo sapiens, UniProt P08476)
T5 sequence (P08476 311-426): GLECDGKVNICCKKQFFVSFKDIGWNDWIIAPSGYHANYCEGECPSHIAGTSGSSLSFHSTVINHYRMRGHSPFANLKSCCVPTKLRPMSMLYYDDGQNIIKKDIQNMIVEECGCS

T6: BMP-9 (Homo sapiens, UniProt Q9UK05)
T6 sequence (Q9UK05 320-429): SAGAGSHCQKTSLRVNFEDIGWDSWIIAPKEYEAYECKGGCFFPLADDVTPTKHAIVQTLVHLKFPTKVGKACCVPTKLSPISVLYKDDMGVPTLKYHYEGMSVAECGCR


Experiments:
[1] = target: T1, recombinant human activin A; assay: cell-based or functional assay
activin B = target: T2, activin B; assay: cell-based or functional assay
GDF-8 = GDF-8 (UniProt O14793 267-375); assay: cell-based or functional assay
GDF-11 = GDF-11 (UniProt O95390 299-407); assay: cell-based or functional assay
BMP-9 [2] = target: T3, BMP-9; assay: cell-based or functional assay
BMP-10 = target: T4, BMP-10; assay: cell-based or functional assay
activin A = target: T5, activin A; assay: Small-scale activin A ELISA with CHO supernatants; conditions: 1 μg/mL protein, 30 ng/mL activin A, loss of signal = binding
Experimental: (§1) Small-scale testing of ActRIIB-ECD fusion proteins. Additional investigation of a series of exemplary agents was performed using proteins expressed in CHO cells. Briefly, DNA encoding the ActRIIB-ECD-Fc fusion constructs was transfected in cells seeded in 12-well plates in a final volume of 1 ml. After 7 days, the supernatant was harvested, clarified, and the amount of expressed protein in each well was quantified using standard methods. The potency of each agent for inhibition of activin A, BMP-9 and BMP-10 was determined in three separate assays.
The next day, the plate was washed three times with buffer (Biolegend #421601). […] Expressed proteins in the supernatants described above were diluted to 2 μg/mL in assay diluent (0.5% BSA, 0.05% tween-20 in PBS), mixed 1:1 with recombinant human activin A (R&D #338-AC, 60 ng/mL, diluted in assay diluent). Complexes were immediately added to the 96-well plate in technical duplicates and incubated for 1 h at RT (concentration of expressed protein and activin A on the plate were 1 μg/mL and 30 ng/mL, respectively). […] In this assay, a loss of signal indicates binding of the exemplary agent to activin A, which prevents activin A binding to the anti-activin A antibody on the plate. Results are expressed as a % of the signal obtained with wild-type ActRIIB-Fc (P75).

BMP-9 [3] = target: T6, BMP-9; assay: Small-scale BMP-9 ELISA with CHO supernatants; assay type: binding; conditions: BMP-9 10 ng/mL
Experimental: as §1
The next day, the plate was washed three times. […] Expressed proteins in the supernatants were diluted 1 in 2 in assay diluent (0.5% BSA, 0.05% tween-20 in PBS) and 100 μl was added to the 96-well plate in technical duplicates. After a 1.5-hour incubation at RT, the plate was washed three times. […] In this assay, a loss of signal indicates less binding of the exemplary agent to BMP-9. Results are expressed as a % of the signal obtained with wild-type ActRIIB-Fc (P75).

Chain of GDF-11 (O95390 299-407 limits assumed): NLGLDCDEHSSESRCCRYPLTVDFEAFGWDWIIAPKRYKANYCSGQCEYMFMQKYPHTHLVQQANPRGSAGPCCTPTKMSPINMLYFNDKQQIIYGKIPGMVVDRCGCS

| Activin A IC50; TGFβ-reporter HEK293 cells [1] | Activin B IC50; TGFβ-reporter HEK293 cells (activin B) | GDF-8 IC50; TGFβ-reporter HEK293 cells (GDF-8) | GDF-11 IC50; TGFβ-reporter HEK293 cells (GDF-11) | BMP-9 IC50; BMP-reporter HepG2 cells (BMP-9 [2]) | BMP-10 IC50; BMP-reporter HepG2 cells (BMP-10) | activin A binding, ELISA signal relative to P75 (activin A) | Molecule | BMP-9 binding, ELISA signal relative to P75 (BMP-9 [3]) |
| --- | --- | --- | --- | --- | --- | --- | --- | --- |
| 0.82 nM | 0.8 nM | 0.3 nM | 0.25 nM | 18 nM | 2.4 nM | – | P751 (Fc fusion) ETRECIYYNANWELERTNQSGLERCEGEQDKRYHCYASWRNSSGTIELVKKGCWLDDFNCYDRQECVATEENPQVYFCCCEGNFCNERFTHLPEAGGPEVTYEPPPTGGGGSGGGGSGG[human IgG1 Fc and a few adjoining residues not spelt out] | – |
| – | – | – | – | – | – | comparable binding to activin A | P1275: hActRIIB L33Y, L55I, 14 aa linker, IgG1-DL Fc; SEQ ID 229 (protein) ETRECIYYNANWELERTNQSGLERCEGEQDKRYHCYASWRNSSGTIELVKKGCWIDDFNCYDRQECVATEENPQVYFCCCEGNFCNERFTHLPEAGGPEVTYEPPPTGGGGSGGGGSGG[human IgG1 Fc and a few adjoining residues not spelt out] | very low BMP-9 binding |
| – | – | – | – | – | – | potent activin A binding | P1231: hActRIIB L33K, 14 aa linker, IgG1-DL Fc; SEQ ID 213 (protein) ETRECIYYNANWELERTNQSGLERCEGEQDKRKHCYASWRNSSGTIELVKKGCWLDDFNCYDRQECVATEENPQVYFCCCEGNFCNERFTHLPEAGGPEVTYEPPPTGGGGSGGGGSGG[human IgG1 Fc and a few adjoining residues not spelt out] | intermediate binding between P444 and P75 |
| – | – | – | – | – | – | potent activin A binding | P1206: hActRIIB L33F, 14 aa linker, IgG1-DL Fc; SEQ ID 206 (protein) ETRECIYYNANWELERTNQSGLERCEGEQDKRFHCYASWRNSSGTIELVKKGCWLDDFNCYDRQECVATEENPQVYFCCCEGNFCNERFTHLPEAGGPEVTYEPPPTGGGGSGGGGSGG[human IgG1 Fc and a few adjoining residues not spelt out] | intermediate binding between P444 and P75 |
| 0.85 nM | 7.7 nM | 0.37 nM | 0.46 nM | 265 nM | 2.4 nM | – | P1182 (Fc fusion) ETRECIYYNANWELERTNQSGLERCEDEQDKRYHCYASWRNSSGTIELVKKGCWLDDFNCYDRQECVATEENPQVYFCCCEGNFCNERFTHLPEAGGPEVTYEPPPTGGGGSGGGGSGG[human IgG1 Fc and a few adjoining residues not spelt out] | – |
| 1 nM | 5.2 nM | 0.33 nM | 0.44 nM | 791 nM | 2.3 nM | – | P1185 (Fc fusion) ETRECIYYNANWELERTNQSGLERCEEEQDKRYHCYASWRNSSGTIELVKKGCWLDDFNCYDRQECVATEENPQVYFCCCEGNFCNERFTHLPEAGGPEVTYEPPPTGGGGSGGGGSGG[human IgG1 Fc and a few adjoining residues not spelt out] | – |
| 0.76 nM | 1 nM | 0.58 nM | 0.51 nM | 21 nM | 4.7 nM | – | P750 (Fc fusion) ETRECIYYNANWELERTNQSGLERCEGEQDKRRHCYASWRNSSGTIELVKKGCWLDDFNCYDRQECVATEENPQVYFCCCEGNFCNERFTHLPEAGGPEVTYEPPPTGGGGSGGGGSGG[human IgG1 Fc and a few adjoining residues not spelt out] | – |
| 2.3 nM | 1.4 nM | 0.67 nM | 0.75 nM | 3 nM | 2 nM | – | P75 (Fc fusion) ETRECIYYNANWELERTNQSGLERCEGEQDKRLHCYASWRNSSGTIELVKKGCWLDDFNCYDRQECVATEENPQVYFCCCEGNFCNERFTHLPEAGGPEVTYEPPPTG[human IgG1 Fc and a few adjoining residues not spelt out] | – |
| 0.53 nM | 1.9 nM | 0.37 nM | 0.4 nM | – | – | – | P1374 (Fc fusion) ETRECIYYNANWELERTNQSGLERCEGEQDKRWHCYASWRNSSGTIELVKKGCWLDDFNCYDRQECVATEENPQVYFCCCEGNFCNERFTHLPEAGGPEVTYEPPPTGGGGSGGGGSGGGGSGGGG[human IgG1 Fc with changes not spelt out] | – |
| 0.52 nM | 1 nM | 0.4 nM | 0.39 nM | > 100 nM | > 100 nM | – | P1389 (Fc fusion) ETRECIYYNANWELERTNQSGLERCETEQDKRWHCYASWRNSSGTIELVKKGCWLDDFNCYDRQECVATEENPQVYFCCCEGNFCNERFTHLPEAGGPEVTYEPPPTGGGGSGGGGSGGGGSGG[human IgG1 Fc and a few adjoining residues not spelt out] | – |
| 1.7 nM | > 20 nM | 0.33 nM | 0.37 nM | > 1000 nM | > 100 nM | – | P1406 (Fc fusion) ETRECIYYNANWEEERTNQSGLERCEGEQDKRWHCYASWRNSSGTIELVKKGCWLDDFNCYDRQECVATEENPQVYFCCCEGNFCNERFTHLPEAGGPEVTYEPPPTGGGGSGGGGSGGGGSGG[human IgG1 Fc and a few adjoining residues not spelt out] | – |
| 0.56 nM | 2.7 nM | 0.23 nM | 0.6 nM | – | – | – | P1371 (Fc fusion, also called Protein 1371) ETRECIYYNANWELERTNQSGLERCEGEQDKRWHCYASWRNSSGTIELVKKGCWLDDFNCYDRQECVATEENPQVYFCCCEGNFCNERFTHLPEAGGPEVTYEPPPTGGGGSGGGGSGGGG[human IgG1 Fc with changes not spelt out] | – |

| Molecule | Activin A IC50; TGFβ-reporter HEK293 cells [1] | Activin B IC50; TGFβ-reporter HEK293 cells (activin B) | GDF-8 IC50; TGFβ-reporter HEK293 cells (GDF-8) | GDF-11 IC50; TGFβ-reporter HEK293 cells (GDF-11) | BMP-9 IC50; BMP-reporter HepG2 cells (BMP-9 [2]) | BMP-10 IC50; BMP-reporter HepG2 cells (BMP-10) | activin A binding, ELISA signal relative to P75 (activin A) | BMP-9 binding, ELISA signal relative to P75 (BMP-9 [3]) |
| --- | --- | --- | --- | --- | --- | --- | --- | --- |
| P1273: hActRIIB L33Y, L55Q, 14 aa linker, IgG1-DL Fc; SEQ ID 227 (protein) ETRECIYYNANWELERTNQSGLERCEGEQDKRYHCYASWRNSSGTIELVKKGCWQDDFNCYDRQECVATEENPQVYFCCCEGNFCNERFTHLPEAGGPEVTYEPPPTGGGGSGGGGSGG[human IgG1 Fc and a few adjoining residues not spelt out] | – | – | – | – | – | – | lower binding to activin A relative to P75 | near-undetectable binding to BMP-9 |
